Source: the supplement of paper PMC8728848
This is one part of the list.

How the values were obtained:
Assay in all cases: glycan array binding signal (z-score within array); higher = stronger binding
Settings in all cases: glycan notation: IUPAC condensed, linker removed
[1] = molecular target: Neu5Ac(a2-3)Gal(b1-3)GalNAc6S
Outline: (§1)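 Negative Z-scores can be read as non-binding. The Z-score is calculated within each array and then averaged across arrays of one protein sequence at different concentrations or buffers and across linkers. Arrays, 3228 in all, were curated from the Consortium for Functional Glycomics database and kept only where the protein sequence was available.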

[2] = molecular target: Neu5Ac(a2-3)Gal(b1-3)GlcNAc
Outline: as §1

[3] = molecular target: Neu5Ac(a2-3)Gal(b1-3)GlcNAc(b1-2)Man(a1-3)[Neu5Ac(a2-3)Gal(b1-3)GlcNAc(b1-2)Man(a1-6)]Man(b1-4)GlcNAc(b1-4)GlcNAc
Outline: as §1

[4] = molecular target: Neu5Ac(a2-3)Gal(b1-3)GlcNAc(b1-3)Gal(b1-3)GlcNAc
Outline: as §1

[5] = molecular target: Neu5Ac(a2-3)Gal(b1-3)GlcNAc(b1-3)Gal(b1-4)GlcNAc
Outline: as §1

[6] = molecular target: Neu5Ac(a2-3)Gal(b1-3)GlcNAc(b1-3)GalNAc
Outline: as §1

[7] = molecular target: Neu5Ac(a2-3)Gal(b1-3)GlcNAc6S
Outline: as §1

[8] = molecular target: Neu5Ac(a2-3)Gal(b1-3)[Fuc(a1-4)]GlcNAc
Outline: as §1

[9] = molecular target: Neu5Ac(a2-3)Gal(b1-3)[Fuc(a1-4)]GlcNAc(b1-3)Gal(b1-3)[Fuc(a1-4)]GlcNAc
Outline: as §1

[10] = molecular target: Neu5Ac(a2-3)Gal(b1-3)[Fuc(a1-4)]GlcNAc(b1-3)Gal(b1-4)[Fuc(a1-3)]GlcNAc
Outline: as §1

[11] = molecular target: Neu5Ac(a2-3)Gal(b1-3)[Neu5Ac(a2-3)Gal(b1-4)]GlcNAc
Outline: as §1

[12] = molecular target: Neu5Ac(a2-3)Gal(b1-3)[Neu5Ac(a2-6)]GalNAc
Outline: as §1

Neu5Ac(a2-3)Gal(b1-4)Glc = molecular target: Neu5Ac(a2-3)Gal(b1-4)Glc
Outline: as §1

[13] = molecular target: Neu5Ac(a2-3)Gal(b1-4)GlcNAc
Outline: as §1

[14] = molecular target: Neu5Ac(a2-3)Gal(b1-4)GlcNAc(b1-2)Man(a1-3)[GlcNAc(b1-2)Man(b1-4)GlcNAc(b1-2)Man(a1-6)]Man(b1-4)GlcNAc(b1-4)GlcNAc
Outline: as §1

[15] = molecular target: Neu5Ac(a2-3)Gal(b1-4)GlcNAc(b1-2)Man(a1-3)[Neu5Ac(a2-6)Gal(b1-4)GlcNAc(b1-2)Man(a1-6)]Man(b1-4)GlcNAc(b1-4)GlcNAc
Outline: as §1

[16] = molecular target: Neu5Ac(a2-3)Gal(b1-4)GlcNAc(b1-3)Gal(b1-3)GlcNAc
Outline: as §1

[17] = molecular target: Neu5Ac(a2-3)Gal(b1-4)GlcNAc(b1-3)Gal(b1-4)GlcNAc
Outline: as §1

[18] = molecular target: Neu5Ac(a2-3)Gal(b1-4)GlcNAc(b1-3)Gal(b1-4)GlcNAc(b1-3)Gal(b1-4)GlcNAc
Outline: as §1

[19] = molecular target: Neu5Ac(a2-3)Gal(b1-4)GlcNAc(b1-3)Gal(b1-4)[Fuc(a1-3)]GlcNAc
Outline: as §1

[20] = molecular target: Neu5Ac(a2-3)Gal(b1-4)GlcNAc(b1-3)GalNAc
Outline: as §1

[21] = molecular target: Neu5Ac(a2-3)Gal(b1-4)GlcNAc(b1-6)[Gal(b1-3)]GalNAc
Outline: as §1

[22] = molecular target: Neu5Ac(a2-3)Gal(b1-4)GlcNAc(b1-6)[Neu5Ac(a2-3)Gal(b1-3)]GalNAc
Outline: as §1

[23] = molecular target: Neu5Ac(a2-3)Gal(b1-4)GlcNAc6S
Outline: as §1

[24] = molecular target: Neu5Ac(a2-3)Gal(b1-4)[Fuc(a1-3)]GlcNAc
Outline: as §1

[25] = molecular target: Neu5Ac(a2-3)Gal(b1-4)[Fuc(a1-3)]GlcNAc(b1-3)Gal
Outline: as §1

[26] = molecular target: Neu5Ac(a2-3)Gal(b1-4)[Fuc(a1-3)]GlcNAc(b1-3)Gal(b1-4)GlcNAc
Outline: as §1

[27] = molecular target: Neu5Ac(a2-3)Gal(b1-4)[Fuc(a1-3)]GlcNAc(b1-3)Gal(b1-4)[Fuc(a1-3)]GlcNAc(b1-3)Gal(b1-4)[Fuc(a1-3)]GlcNAc
Outline: as §1

B1: Gal 1 (Canis lupus) (protein)
chain: MACGLVASNLSLKPGQCLRVQCEVVPEAKSFVLNLGKDGDNLCLHFNPRFEAHGDVNTIVCNSKDGGAWGEELRESAFPFQPGTVTEVCISFDQADLTIKLPDGYTFKFPNRLNLEAISYLAADGDMKIKCLAFD
- glycan array binding signal (z-score) [1]: -0.333
- glycan array binding signal (z-score) [2]: 0.165
- glycan array binding signal (z-score) [3]: 0.24
- glycan array binding signal (z-score) [4]: 1.25
- glycan array binding signal (z-score) [5]: 1.66
- glycan array binding signal (z-score) [6]: 0.266
- glycan array binding signal (z-score) [7]: -0.31
- glycan array binding signal (z-score) [8]: -0.327
- glycan array binding signal (z-score) [9]: -0.298
- glycan array binding signal (z-score) [10]: -0.322
- glycan array binding signal (z-score) [11]: -0.327
- glycan array binding signal (z-score) [12]: -0.299
- glycan array binding signal (z-score) (Neu5Ac(a2-3)Gal(b1-4)Glc): -0.03
- glycan array binding signal (z-score) [13]: 0.135
- glycan array binding signal (z-score) [14]: 3.31
- glycan array binding signal (z-score) [15]: 0.466
- glycan array binding signal (z-score) [16]: 0.446
- glycan array binding signal (z-score) [17]: 0.533
- glycan array binding signal (z-score) [18]: 2.07
- glycan array binding signal (z-score) [19]: -0.336
- glycan array binding signal (z-score) [20]: -0.047
- glycan array binding signal (z-score) [21]: -0.078
- glycan array binding signal (z-score) [22]: -0.299
- glycan array binding signal (z-score) [23]: 0.046
- glycan array binding signal (z-score) [24]: -0.327
- glycan array binding signal (z-score) [25]: -0.306
- glycan array binding signal (z-score) [26]: -0.302
- glycan array binding signal (z-score) [27]: -0.333
